This passage reports binding signal (RPM ratio (pull-down/input)) results from publication PMC12820563.

This is one part of the list. The list includes weakly bound sequences.

This test deals with T1, MBP-FoxP3dN (UniProt Q99JB6).
T1 sequence: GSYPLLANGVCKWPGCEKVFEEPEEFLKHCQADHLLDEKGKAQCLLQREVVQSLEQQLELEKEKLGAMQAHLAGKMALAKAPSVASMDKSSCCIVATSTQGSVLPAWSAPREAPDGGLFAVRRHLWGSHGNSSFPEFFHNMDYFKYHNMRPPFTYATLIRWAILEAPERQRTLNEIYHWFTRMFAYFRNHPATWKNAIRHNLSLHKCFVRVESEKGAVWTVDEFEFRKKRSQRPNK
As to the kind of experiment: PD-seq (MBP pull-down with sequencing). To be noted: 20 mM Tris-HCl pH 7.5, 100 mM NaCl, 1.5 mM MgCl2, 0.4 uM protein, 0.1 uM dsDNA library, 30 min, room temperature, amylose pull-down; high values mean tight binding; double strand, one strand shown.
With “GATGATTGTTCTCCCAGCTGATGAATTAAGACAGTCGAGTAAACAAATTTTCCTAATCTTTCTGTTCAAGCGCCATCTAC”, the binding signal (RPM ratio (pull-down/input)) is 0.324.
Take “GATGATTGTTCTCCCAGCTGATGAATTTTTTATCTCGAGTAAACAAATTTTCCTAATCTTTCTGTTCAAGCGCCATCTAC”: the binding signal (RPM ratio (pull-down/input)) is 0.243.
The value for “GATGATTGTTCTCCCAGCTGATGAATTGTTACACTCGAGTAAACAAATTTTCCTAATCTTTCTGTTCAAGCGCCATCTAC” was 1.28.
Regarding “GATGATTGTTCTCCCAGCTGATGAATTTTAGATTTCGAGTAAACAAATTTTCCTAATCTTTCTGTTCAAGCGCCATCTAC”, the binding signal (RPM ratio (pull-down/input)) turned out to be 0.328.
Regarding “GATGATTGTTCTCCCAGCTGATGAATTGCGGGCATCGAGTAAACAAATTTTCCTAATCTTTCTGTTCAAGCGCCATCTAC”, the binding signal (RPM ratio (pull-down/input)) came to 1.32.
With “GATGATTGTTCTCCCAGCTGATGAATTACGTCGTTCGAGTAAACAAATTTTCCTAATCTTTCTGTTCAAGCGCCATCTAC”, the binding signal (RPM ratio (pull-down/input)) came to 0.719.
The value for “GATGATTGTTCTCCCAGCTGATGAATTCGTTTTATCGAGTAAACAAATTTTCCTAATCTTTCTGTTCAAGCGCCATCTAC” was 1.55; that for “GATGATTGTTCTCCCAGCTGATGAATTTACGTACTCGAGTAAACAAATTTTCCTAATCTTTCTGTTCAAGCGCCATCTAC” was 0.753.
The value for “GATGATTGTTCTCCCAGCTGATGAATTAGGATGTTCGAGTAAACAAATTTTCCTAATCTTTCTGTTCAAGCGCCATCTAC” was 0.82; that for “GATGATTGTTCTCCCAGCTGATGAATTGGCAGTATCGAGTAAACAAATTTTCCTAATCTTTCTGTTCAAGCGCCATCTAC” was 0.579; that for “GATGATTGTTCTCCCAGCTGATGAATTCACCATGTCGAGTAAACAAATTTTCCTAATCTTTCTGTTCAAGCGCCATCTAC” was 0.335.
In the case of “GATGATTGTTCTCCCAGCTGATGAATTCGTTTGTTCGAGTAAACAAATTTTCCTAATCTTTCTGTTCAAGCGCCATCTAC”, the binding signal (RPM ratio (pull-down/input)) was 5.83.
As for “GATGATTGTTCTCCCAGCTGATGAATTGACCATTTCGAGTAAACAAATTTTCCTAATCTTTCTGTTCAAGCGCCATCTAC”, the binding signal (RPM ratio (pull-down/input)) amounted to 0.397.
The value for “GATGATTGTTCTCCCAGCTGATGAATTACTATATTCGAGTAAACAAATTTTCCTAATCTTTCTGTTCAAGCGCCATCTAC” was 0.504; that for “GATGATTGTTCTCCCAGCTGATGAATTTGGCTTCTCGAGTAAACAAATTTTCCTAATCTTTCTGTTCAAGCGCCATCTAC” was 2.06; that for “GATGATTGTTCTCCCAGCTGATGAATTGCAAGGTTCGAGTAAACAAATTTTCCTAATCTTTCTGTTCAAGCGCCATCTAC” was 0.745.
The value for “GATGATTGTTCTCCCAGCTGATGAATTAAACGCCTCGAGTAAACAAATTTTCCTAATCTTTCTGTTCAAGCGCCATCTAC” was 0.63.
For the sequence “GATGATTGTTCTCCCAGCTGATGAATTAATCACTTCGAGTAAACAAATTTTCCTAATCTTTCTGTTCAAGCGCCATCTAC”, the binding signal (RPM ratio (pull-down/input)) worked out at 0.787.
Under “GATGATTGTTCTCCCAGCTGATGAATTTCCCCTCTCGAGTAAACAAATTTTCCTAATCTTTCTGTTCAAGCGCCATCTAC” stands 0.24; under “GATGATTGTTCTCCCAGCTGATGAATTTACTTGTTCGAGTAAACAAATTTTCCTAATCTTTCTGTTCAAGCGCCATCTAC”, 3.06.
As to “GATGATTGTTCTCCCAGCTGATGAATTCGACCCATCGAGTAAACAAATTTTCCTAATCTTTCTGTTCAAGCGCCATCTAC”, the binding signal (RPM ratio (pull-down/input)) was 0.343.
With “GATGATTGTTCTCCCAGCTGATGAATTCCGAATCTCGAGTAAACAAATTTTCCTAATCTTTCTGTTCAAGCGCCATCTAC”, the binding signal (RPM ratio (pull-down/input)) turned out to be 1.7.
On to “GATGATTGTTCTCCCAGCTGATGAATTAATTAAGTCGAGTAAACAAATTTTCCTAATCTTTCTGTTCAAGCGCCATCTAC”, for which the binding signal (RPM ratio (pull-down/input)) came out at 0.313.
With “GATGATTGTTCTCCCAGCTGATGAATTAATGTTGTCGAGTAAACAAATTTTCCTAATCTTTCTGTTCAAGCGCCATCTAC”, the binding signal (RPM ratio (pull-down/input)) came to 2.61.
The value for “GATGATTGTTCTCCCAGCTGATGAATTGGAATAATCGAGTAAACAAATTTTCCTAATCTTTCTGTTCAAGCGCCATCTAC” was 0.287.
On to “GATGATTGTTCTCCCAGCTGATGAATTCCCACGATCGAGTAAACAAATTTTCCTAATCTTTCTGTTCAAGCGCCATCTAC”, for which the binding signal (RPM ratio (pull-down/input)) was found to be 0.233.
The value for “GATGATTGTTCTCCCAGCTGATGAATTCCTTGACTCGAGTAAACAAATTTTCCTAATCTTTCTGTTCAAGCGCCATCTAC” was 0.265; that for “GATGATTGTTCTCCCAGCTGATGAATTTACCGAGTCGAGTAAACAAATTTTCCTAATCTTTCTGTTCAAGCGCCATCTAC” was 0.294; that for “GATGATTGTTCTCCCAGCTGATGAATTACTCCGCTCGAGTAAACAAATTTTCCTAATCTTTCTGTTCAAGCGCCATCTAC” was 0.221.
Under “GATGATTGTTCTCCCAGCTGATGAATTGTCCAGGTCGAGTAAACAAATTTTCCTAATCTTTCTGTTCAAGCGCCATCTAC” stands 0.186.
In the case of “GATGATTGTTCTCCCAGCTGATGAATTGTCGTCTTCGAGTAAACAAATTTTCCTAATCTTTCTGTTCAAGCGCCATCTAC”, the binding signal (RPM ratio (pull-down/input)) is 0.777.
With “GATGATTGTTCTCCCAGCTGATGAATTAAGTCCATCGAGTAAACAAATTTTCCTAATCTTTCTGTTCAAGCGCCATCTAC”, the binding signal (RPM ratio (pull-down/input)) was 0.318.
